This passage reports cAMP reporter score and surface expression score results from the GPR68 mutational scans of Howard et al. (2025).

B1: GPR68, Q15743 (parent)
chain: MGNITADNSSMSCTIDHTIHQTLAPVVYVTVLVVGFPANCLSLYFGYLQIKARNELGVYLCNLTVADLFYICSLPFWLQYVLQHDNWSHGDLSCQVCGILLYENIYISVGFLCCISVDRYLAVAHPFRFHQFRTLKAAVGVSVVIWAKELLTSIYFLMHEEVIEDENQHRVCFEHYPIQAWQRAINYYRFLVGFLFPICLLLASYQGILRAVRRSHGTQKSRKDQIQRLVLSTVVIFLACFLPYHVLLLVRSVWEASCDFAKGVFNAYHFSLLLTSFNCVADPVLYCFVSETTHRDLARLRGACLAFLTCSRTGRAREAYPLGAPEASGKSGAQGEEPELLTKLHPAFQTPNSPGSGGFPTGRLA

Data set [1] covers variants of B1. Nature of the data set: cAMP reporter score (Enrich2 score, wild type = 0); higher = more signal; HEK293T, FACS bins.
Variants of B1 are the subject of data set [2]. Briefly: surface expression score (Enrich2 score, wild type = 0); higher = more signal; HEK293T, FACS bins.

Scores with a large standard error are left out. Not listed are two conditions whose scores span a narrow range. In variant names, del marks residues removed and ins residues inserted between the two positions. For part of these data: The concentration of ogerin is not given here.

MGNITADNSSMSCTIDHTIHQTLAPVVYVTVLVVGFPANCLSLYFGYLQIKARNELGVYLCNLTVADLFYICSLPFWLQYVLQHDNWSHGDLSCQVCGILLYENIYISVGFLCCISVDRYLAVAHPFRFHQFRTLKAAVGVSVVIWAKELLTSIYFLMHEEVIEDENQHRVCFEHYPIQAWQRAINYYRFLVGFLFPICLLLASYQGILRAVRRSHGTQKSRKDQIQRLVLSTVVIFLACFLPYHVLLLVRSVWEASCDFAKGVFNAYHFSLLLTSFNCVADPVLYCFVSETTHADLARLRGACLAFLTCSRTGRAREAYPLGAPEASGKSGAQGEEPELLTKLHPAFQTPNSPGSGGFPTGRLA [R295A]: the cAMP reporter score in data set [1] (pH 5.5) is 0.572; in data set [1] (pH 6), -0.841; in data set [1] (pH 6, modulator: ogerin), 0.506; in data set [1] (pH 6.5, modulator: ogerin), -0.103. In addition, the surface expression score in data set [2] was 1.42.
With MGNITADNSSMSCTIDHTIHQTLAPVVYVTVLVVGFPANCLSLYFGYLQIKARNELGVYLCNLTVADLFYICSLPFWLQYVLQHDNWSHGDLSCQVCGILLYENIYISVGFLCCISVDRYLAVAHPFRFHQFRTLKAAVGVSVVIWAKELLTSIYFLMHEEVIEDENQHRVCFEHYPIQAWQRAINYYRFLVGFLFPICLLLASYQGILRAVRRSHGTQKSRKDQIQRLVLSTVVIFLACFLPYHVLLLVRSVWEASCDFAKGVFNAYHFSLLLTSFNCVADPVLYCFVSETTHCDLARLRGACLAFLTCSRTGRAREAYPLGAPEASGKSGAQGEEPELLTKLHPAFQTPNSPGSGGFPTGRLA [R295C], the cAMP reporter score in data set [1] (pH 5.5) is 0.647; in data set [1] (pH 6), -0.593; in data set [1] (pH 6, modulator: ogerin) it was 0.081; in data set [1] (pH 6.5, modulator: ogerin), -0.762. For the same variant, the surface expression score in data set [2] came to 1.31.
Consider H294_D296del, for which the cAMP reporter score in data set [1] (pH 5.5) was 0.242; in data set [1] (pH 6), -0.501; in data set [1] (pH 6, modulator: ogerin), 0.775; in data set [1] (pH 6.5, modulator: ogerin), -1.03. For the same variant, the surface expression score in data set [2] is -0.412.
